{"source": "paper PMC6919601", "about": "“Identification of Plasmodium dipeptidyl aminopeptidase allosteric inhibitors by high throughput screening” (PLoS ONE, 2019)", "note": "About 230 (0.21%) of roughly 110,000 compounds showed an effect of 50% or more. The list shows a part of the results.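 Further: 30 min substrate incubation versus DMSO and 10 µM JCP410 controls.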"}
{"target": "DPAP1 (Plasmodium falciparum, UniProt Q8IIJ9)", "sequence (Q8IIJ9 whole entry, looked up)": "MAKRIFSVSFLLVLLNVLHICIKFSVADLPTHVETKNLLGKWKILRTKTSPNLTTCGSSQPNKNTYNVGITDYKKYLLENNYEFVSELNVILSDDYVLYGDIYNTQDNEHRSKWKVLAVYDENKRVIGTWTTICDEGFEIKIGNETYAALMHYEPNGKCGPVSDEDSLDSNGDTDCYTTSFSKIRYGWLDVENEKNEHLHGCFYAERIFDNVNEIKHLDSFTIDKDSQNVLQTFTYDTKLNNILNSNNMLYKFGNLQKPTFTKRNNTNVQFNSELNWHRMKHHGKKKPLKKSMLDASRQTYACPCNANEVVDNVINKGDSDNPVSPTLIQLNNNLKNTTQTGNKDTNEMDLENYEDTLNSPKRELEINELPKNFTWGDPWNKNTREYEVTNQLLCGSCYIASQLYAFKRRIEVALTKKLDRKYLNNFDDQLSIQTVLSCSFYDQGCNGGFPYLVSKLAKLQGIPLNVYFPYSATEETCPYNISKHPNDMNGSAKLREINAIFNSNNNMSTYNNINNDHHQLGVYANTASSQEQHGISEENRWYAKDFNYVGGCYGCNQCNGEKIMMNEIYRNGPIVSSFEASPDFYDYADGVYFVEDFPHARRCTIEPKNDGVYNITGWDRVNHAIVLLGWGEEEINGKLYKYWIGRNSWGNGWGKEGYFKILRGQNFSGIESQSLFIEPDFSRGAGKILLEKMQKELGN", "assay": "primary screen, percent inhibition; read by cleavage of a fluorogenic dipeptide substrate; higher = more effect of the substance", "set-up": "species or system P. falciparum D10 trophozoite lysates; single well", "units": {"% Inhibition @ 10 uM": "%"}}
{"compound": "COc1ccc(OC)c(NC(=O)c2ccc3c(c2)C(=O)N(c2ccc(Cl)cc2)C3=O)c1", "% Inhibition @ 10 uM": -3.09}
{"compound": "COc1cc(C(=O)Nc2ccc(C)cc2C)cc(OC)c1OC", "% Inhibition @ 10 uM": -2.65}
{"compound": "CC(Oc1ccc(-c2ccccc2)cc1)C(=O)O", "note": "(centres unmarked)", "% Inhibition @ 10 uM": 1.12}
{"compound": "CCCN(CC1CC1)C1CCN(C(C)=O)CC1", "% Inhibition @ 10 uM": -3.5}
{"compound": "CC1SC2(C(=O)Nc3ccccc32)N(c2ccc(Cl)c(Cl)c2)C1=O", "note": "(centres unmarked)", "% Inhibition @ 10 uM": 4.32}
{"compound": "COc1ccc(-c2nnc(-c3ccc(Cl)cc3)o2)cc1", "% Inhibition @ 10 uM": 5.45}
{"compound": "COC(=O)c1ccc2oc(=O)c(-c3nc(-c4cccs4)no3)cc2c1", "% Inhibition @ 10 uM": -3.88}
{"compound": "CCC(C)NS(=O)(=O)c1cc(Br)cnc1N", "note": "(centres unmarked)", "% Inhibition @ 10 uM": 8.44}
{"compound": "C(=C\\c1ccccc1)/CN1CCN(Cc2cccs2)CC1", "% Inhibition @ 10 uM": -3.65}
{"compound": "CCc1ccc(-c2cc(C)no2)cc1S(=O)(=O)N(C)Cc1ccccc1", "% Inhibition @ 10 uM": 6.76}
{"compound": "O=C(Nc1ccc2c(c1)OCO2)C(Sc1ccccc1)c1ccccc1", "note": "(centres unmarked)", "% Inhibition @ 10 uM": 5.14}
{"compound": "O=C(CSc1cn(CC(=O)N2CCOCC2)c2ccccc12)NCC1CCCO1", "note": "(centres unmarked)", "% Inhibition @ 10 uM": 7.24}
{"compound": "N#CCNC(=O)[C@H](CS(=O)(=O)Cc1ccccc1)NC(=O)c1cccnc1", "% Inhibition @ 10 uM": -3.49}
{"compound": "CC1Nc2nc(N(C)C)nc(O)c2N(C(=O)C2=CN(Cc3ccccc3)CCC2)C1C", "note": "(centres unmarked)", "% Inhibition @ 10 uM": -6.83}
{"compound": "Cc1ccc(NC(=O)CCC(=O)Nc2ccc(C)cc2C)c(C)c1", "% Inhibition @ 10 uM": -0.318}
{"compound": "CCOC(=O)N1CCN(C(=O)c2ccc(C/N=c3\\c(O)c(O)\\c3=N/C3CCCC3)cc2)CC1", "% Inhibition @ 10 uM": 7.76}
{"compound": "CCOc1ccc(S(=O)(=O)N=Nc2c(O)[nH]c3ccccc23)cc1", "% Inhibition @ 10 uM": 22.5}
{"compound": "CC(CCc1ccccc1)NCc1c(C(=O)O)n(C)c2ccccc12", "note": "(centres unmarked)", "% Inhibition @ 10 uM": 5.09}
{"compound": "COc1ccc(N/C=C2/C(=O)N(c3ccc(OC)cc3)C(=O)c3cc(OC)ccc32)cc1", "% Inhibition @ 10 uM": 5.63}
{"compound": "Cc1[nH]c2ccccc2c1/C(Cc1ccccc1)=N/O", "% Inhibition @ 10 uM": 2.62}
{"compound": "Cc1nc(-c2ccccc2)nc2nccc(O)c12", "% Inhibition @ 10 uM": 0.343}
{"compound": "O=S(=O)(c1ccc(-n2cccn2)cc1)N1CCN(C(c2ccccc2)c2ccccc2)CC1", "% Inhibition @ 10 uM": 0.776}
{"compound": "CCn1c(-c2ccc(OC)c(F)c2)cs/c1=N/c1ccccc1", "% Inhibition @ 10 uM": 2.92}
{"compound": "CC1CCCCN1C(=O)CCc1nc(-c2ccc(Cl)cc2)no1", "note": "(centres unmarked)", "% Inhibition @ 10 uM": 0.366}
{"compound": "CCOC(=O)c1c(NC(=O)c2ccc(Br)cc2)sc(C(=O)N2CCOCC2)c1C", "% Inhibition @ 10 uM": 11.6}
{"compound": "O=C(Nc1ccccc1C#Cc1ccccc1)c1ccc(Br)cc1", "% Inhibition @ 10 uM": -3.35}
{"compound": "O=C(Cn1ncc2c(=O)oc3ccccc3c21)NCCCN1CCOCC1", "% Inhibition @ 10 uM": -1.03}
{"compound": "COc1ccc(C(=O)N2CCN(C34CC5CC(CC(C5)C3)C4)CC2)cc1OC", "% Inhibition @ 10 uM": -6.74}
{"compound": "CCC1CCC(C(=O)NC(C(=O)NCCc2ccc(S(N)(=O)=O)cc2)C(C)C)CC1", "note": "(centres unmarked)", "% Inhibition @ 10 uM": -8.18}
{"compound": "Cc1ccc(Cn2cc3c(O)nnc-3c3ccccc32)cc1", "% Inhibition @ 10 uM": 1.68}
{"compound": "COc1c(C)cc(S(=O)(=O)NC2CC(C)(C)NC(C)(C)C2)c(C)c1C", "% Inhibition @ 10 uM": -2.29}
{"compound": "COc1ccc2c(c1)C1(C)CCCc3c(O)c(-c4ccccc4)c(=O)n-2c31", "note": "(centres unmarked)", "% Inhibition @ 10 uM": -1.98}
{"compound": "COCCNC(=O)C1CCC(CNS(=O)(=O)c2cccc3nsnc23)CC1", "note": "(centres unmarked)", "% Inhibition @ 10 uM": -4.1}
{"compound": "CCOc1ccc(NC(=O)C2=C(C)NC(=O)NC2c2cc(OC)c(OC)c(OC)c2)cc1", "note": "(centres unmarked)", "% Inhibition @ 10 uM": 6.71}
{"compound": "CCN(CC)S(=O)(=O)c1ccc2[nH]c3c(c2c1)CCCC3", "% Inhibition @ 10 uM": 1.71}
{"compound": "Cc1ccc(C(=O)Nc2nc(-c3nnn(-c4ccc(C)cc4)c3C)ns2)cc1", "% Inhibition @ 10 uM": -4.33}
{"compound": "O=C(c1ccco1)n1nc(-c2ccco2)nc1NCc1ccccc1Cl", "% Inhibition @ 10 uM": 2.21}
{"compound": "COc1cccc2c1cc1c(=O)n(CC(=O)NC(C)CCc3ccccc3)nc(C)n12", "note": "(centres unmarked)", "% Inhibition @ 10 uM": -1.7}
{"compound": "Cc1ccc(CNC(=O)Cc2csc(Nc3nc(S)nc4ccccc34)n2)cc1", "% Inhibition @ 10 uM": 3.04}
{"compound": "CC(O)CN1CCN(C(=O)CN2C(=O)NC(c3ccccc3)(c3ccccc3)C2=O)CC1", "note": "(centres unmarked)", "% Inhibition @ 10 uM": -4.65}
{"compound": "O=C(Cc1ccc(F)cc1)NCC1(c2ccccc2)CCCC1", "% Inhibition @ 10 uM": -1.31}
{"compound": "CC(=O)c1ccc(NC(=O)C23CCC(C)(C(=O)C2=O)C3(C)C)cc1", "note": "(centres unmarked)", "% Inhibition @ 10 uM": 1.27}
{"compound": "CC[C@H](NC(=O)[C@H](C)NC(=O)c1ccc(-c2ccccc2Cl)c(Cl)c1)C(=O)c1nc2ccccc2o1", "% Inhibition @ 10 uM": -1.5}
{"compound": "CC(C)(C)C1CCC(NCCCN2CCCC2=O)CC1", "note": "(centres unmarked)", "% Inhibition @ 10 uM": 1.57}
{"compound": "Cn1c(SCc2ccc(Cl)cc2)nc2c1c(=O)[nH]c(=O)n2C", "% Inhibition @ 10 uM": 3.05}
{"compound": "CN1CCN(C(=O)c2nc(-c3ccc(Cl)cc3)n3c2CCCCC3)CC1", "% Inhibition @ 10 uM": 6.14}
{"compound": "Cc1cc(C)cc(NS(=O)(=O)c2ccc(NC(=O)c3ccco3)cc2)c1", "% Inhibition @ 10 uM": -5.21}
{"compound": "O=C(NC1CCCC1)c1nnc(-c2ccc3c(c2)OCO3)o1", "% Inhibition @ 10 uM": -3.49}
{"compound": "c1cc[n+](Cc2nc3ccccc3[nH]2)cc1", "% Inhibition @ 10 uM": -1.84}
{"compound": "CC1(O)N(Cc2ccccc2)C(=O)OC12CCCCC2", "note": "(centres unmarked)", "% Inhibition @ 10 uM": 0.317}
{"compound": "CC(C)C[C@H](NC(=O)c1ccc2cc(N)ccc2c1)C(=O)NCC#N", "% Inhibition @ 10 uM": -1.82}
{"compound": "Cn1c(=O)c(-c2cc([N+](=O)[O-])ccc2N)nc2ccccc21", "% Inhibition @ 10 uM": -4.11}
{"compound": "Cc1cc(C)cc(C(=O)NCCSc2c[nH]c3ccccc23)c1", "% Inhibition @ 10 uM": 1.23}
{"compound": "O=C1NC(=O)N(c2ccc(Cl)cc2)C(=O)/C1=C\\NC12CN3CN(CN(C3)C1)C2", "% Inhibition @ 10 uM": -2.16}
{"compound": "COc1ccc(CCNC(=O)C2NC(=O)CC2c2ccccc2)cc1OC", "note": "(centres unmarked)", "% Inhibition @ 10 uM": 0.166}
{"compound": "CCOc1ccc(/C=C2\\SC(N3CCCC3)=NC2=O)cc1", "% Inhibition @ 10 uM": -2.98}
{"compound": "Cc1ccc(SC(C)C(=O)NCC2CCCO2)cc1", "note": "(centres unmarked)", "% Inhibition @ 10 uM": 0.749}
{"compound": "CS(=O)(=O)/C=C/[C@H](CCCCN)NC(=O)[C@@H](Cc1nc[nH]n1)NC(=O)c1ccc(Br)cc1", "% Inhibition @ 10 uM": 13.6}
{"compound": "Cn1ccnc1SCC(=O)c1ccc(-c2ccccc2)cc1", "% Inhibition @ 10 uM": 1.02}
{"compound": "COc1cccc(CNC(=O)Cn2c(=O)c3cccn3c3cccnc32)c1OC", "% Inhibition @ 10 uM": -6.92}
{"compound": "CCOC(=O)c1c(C)c(-c2ccccc2)n(CC(=O)N(CC)Cc2ccccc2)c1C", "% Inhibition @ 10 uM": 1.72}
{"compound": "COc1cc(C2C(C#N)=C(N)N(c3cccnc3)C3=C2C(=O)CCC3)cc(OC)c1OC", "note": "(centres unmarked)", "% Inhibition @ 10 uM": -0.725}
